The other results are listed elsewhere or left out.
B1: chr11:43405833:43405939:+|CDS|ENSG00000052841|unk|FALSE|unique (ssRNA)
RNA: GGGAGUUCUACAGUCCGACGAUCGGCCCAAACCCCUGACUGUUCCAUAACUGACUUCAGAAAAAGCCACACUCUGUCCUACUUAGUCAAAGAAUUAGAGGUUCGCAUGGAUCUGAAAGCCAAAAUGCCAGAUGACCAUGCACGCAACAGAGGAUUGAGCAUCA
B2: ENSG00000124766:be:win_2701|3pUTR|ENSG00000124766|bound_else_gene|NA|bound_elsewhere_windowed (ssRNA)
RNA: GGGAGUUCUACAGUCCGACGAUCCAACUCAAAUCUGUGCUGGACUUUAAAAAAACAAUUCAGGACCAAAUUUUUUCUCAGUGUGUGUGUUUAUUCCUUAUAGGUGUAAAUGAGAAGACGUGUUUUUUUCCUUCACCGAUGCUCCAACAGAGGAUUGAGCAUCA
B3: ENSG00000198589:be:win_1251|CDS|ENSG00000198589|bound_else_gene|NA|bound_elsewhere_windowed (ssRNA)
RNA: GGGAGUUCUACAGUCCGACGAUCUGCAUUCACGUACAAUCCACGGGCUACAGAUGCCCAGCUUUGUCUUGAAUCAUCUCCUAAGGACAACCCUUCAAUUUUUGUUCAUUCACCACAUGCACUCAUGCUCCAGGAUGUAAAGGCCAACAGAGGAUUGAGCAUCA
B4: chr9:132262671:132262773:-|3pUTR|ENSG00000107290|unk|FALSE|bound_elsewhere (ssRNA)
RNA: GGGAGUUCUACAGUCCGACGAUCUGUGCAUUAUUUGACAUUUCCUUUGUCAUCUGCUUUUUAAGCAAAAAAGGGUUUUGUGUUAGAAAUUCUACUUGAGCAGAUUAUAAAGAGCUUUAAAAAACAACUUUCGGUUGCCAAAAGCAACAGAGGAUUGAGCAUCA
B5: chr20:32237940:32238012:+|3pUTR|ENSG00000101346|msi1_unk|FALSE|overlapping (ssRNA)
RNA: GGGAGUUCUACAGUCCGACGAUCUUUCAAAGAUACAAAUAUUUACAUAGUUUUAAUCAUGUAAUAUAUACAAUUUAAUGUCCUAGUGUUUUACUUAAUAGUGUAUCAUGUUUUCCCUGUUGGUAUGUAGCCUGGAUAAAUGCUCAACAGAGGAUUGAGCAUCA
B6: ENSG00000070961:be:win_3051|CDS|ENSG00000070961|bound_else_gene|NA|bound_elsewhere_windowed (ssRNA)
RNA: GGGAGUUCUACAGUCCGACGAUCUGUGGUACAGAUAAUAAUUGUGCAGUUUGGUGGAAAACCUUUCAGUUGUUCAGAACUUUCAAUAGAACAGUGGCUAUGGUCAAUAUUCCUAGGAAUGGGAACAUUACUCUGGGGCCAGCUCAACAGAGGAUUGAGCAUCA

target: MSI1 full-length (mouse, UniProt Q61474 1-362); experiment: nsRBNS (natural sequence RNA bind-n-seq); RBNS binding buffer (assumed for nsRBNS): 25 mM Tris pH 7.5, 150 mM KCl, 3 mM MgCl2, 0.01% Triton X-100, 500 ug/ml BSA, 20 U/ml SUPERase-In, 4 C; UNK is unkempt and MSI1 is Musashi-1; names of the RNAs are library labels; protein concentration not given here; high values mean tight binding
Sequence of UniProt Q61474 (Q61474 whole entry): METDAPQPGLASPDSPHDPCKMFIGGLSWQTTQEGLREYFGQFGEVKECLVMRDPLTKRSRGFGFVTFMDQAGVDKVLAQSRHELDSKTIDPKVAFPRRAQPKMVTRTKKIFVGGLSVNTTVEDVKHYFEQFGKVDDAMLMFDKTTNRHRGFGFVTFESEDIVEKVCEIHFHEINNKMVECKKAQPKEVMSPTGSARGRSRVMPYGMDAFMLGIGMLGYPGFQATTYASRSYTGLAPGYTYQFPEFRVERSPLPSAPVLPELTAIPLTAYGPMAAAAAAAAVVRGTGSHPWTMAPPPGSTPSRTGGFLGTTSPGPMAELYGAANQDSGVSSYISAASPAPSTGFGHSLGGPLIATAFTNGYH

| Binder | binding signal |
| --- | --- |
| B1 | 0.846 enrichment R |
| B2 | 0.555 enrichment R |
| B3 | 0.289 enrichment R |
| B4 | 0.299 enrichment R |
| B5 | 9.08 enrichment R |
| B6 | 0.456 enrichment R |

Source: PMC12136788
